We go through 6 molecules from article PMC10611586.

The target of experiment [1] is Fubi-PA V40R P47Q (human) (UniProt P62861). The experiment can be described thus: activity-based probe labelling (covalent conjugate), SDS-PAGE; purified protease 2.5 µM and probe 10 µM, 1 h at 37 °C; 20 mM Tris pH 8.0, 300 mM NaCl, 2 mM DTT, 5% glycerol; SDS-PAGE and Coomassie staining; both purified.
In another experiment the target is Fubi-PA L72R (human) (UniProt P62861). The description is as above.
Experiment [2] has as its target HA–Fubi-VS (C57L, from GST–3C-GS-HA–Fubi^1–73) (human) (UniProt P62861). The experiment can be described thus: activity-based probe labelling (covalent conjugate), western blot; HEK293 lysate (endogenous or overexpressed Flag-tagged full-length USP) at 2 mg/ml incubated with 10 µM probe for 1 h at 37 °C; SDS-PAGE and western blotting; only the target purified.
Experiment [3] has the same target. Put plainly: activity-based probe labelling (covalent conjugate), western blot; lysates of HEK293 cells overexpressing Flag-tagged full-length USP proteins; milder labeling conditions (not told further); only the target purified.

Results are given in words; binding and its absence hold for the method and conditions named. Some binding calls cover weakened binding; strength is not graded here. For part of these data: Where a sequence is shown, tags or fusion partners need not be part of it.

B1: USP42^70–446 (catalytic domain) (enzyme, UniProt Q9H9J4 70-446)
chain: DKSKPSPQKDQALGDGIAPPQKVLFPSEKICLKWQQTHRVGAGLQNLGNTCFANAALQCLTYTPPLANYMLSHEHSKTCHAEGFCMMCTMQAHITQALSNPGDVIKPMFVINEMRRIARHFRFGNQEDAHEFLQYTVDAMQKACLNGSNKLDRHTQATTLVCQIFGGYLRSRVKCLNCKGVSDTFDPYLDITLEIKAAQSVNKALEQFVKPEQLDGENSYKCSKCKKMVPASKRFTIHRSSNVLTLSLKRFANFTGGKIAKDVKYPEYLDIRPYMSQPNGEPIVYVLYAVLVHTGFNCHAGHYFCYIKASNGLWYQMNDSIVSTSDIRSVLSQQAYVLFYIRSHDVKNGGELTHPTHSPGQSSPRPVISQRVVTNKQ
Regarding B1, the binding entry (in experiment [1]; in the experiment with Fubi-PA L72R (human)) was “binds weakly” in each case.

B2: Flag–USP48, full length (enzyme, UniProt Q86UV5 1-1035)
chain: MAPRLQLEKAAWRWAETVRPEEVSQEHIETAYRIWLEPCIRGVCRRNCKGNPNCLVGIGEHIWLGEIDENSFHNIDDPNCERRKKNSFVGLTNLGATCYVNTFLQVWFLNLELRQALYLCPSTCSDYMLGDGIQEEKDYEPQTICEHLQYLFALLQNSNRRYIDPSGFVKALGLDTGQQQDAQEFSKLFMSLLEDTLSKQKNPDVRNIVQQQFCGEYAYVTVCNQCGRESKLLSKFYELELNIQGHKQLTDCISEFLKEEKLEGDNRYFCENCQSKQNATRKIRLLSLPCTLNLQLMRFVFDRQTGHKKKLNTYIGFSEILDMEPYVEHKGGSYVYELSAVLIHRGVSAYSGHYIAHVKDPQSGEWYKFNDEDIEKMEGKKLQLGIEEDLAEPSKSQTRKPKCGKGTHCSRNAYMLVYRLQTQEKPNTTVQVPAFLQELVDRDNSKFEEWCIEMAEMRKQSVDKGKAKHEEVKELYQRLPAGAEPYEFVSLEWLQKWLDESTPTKPIDNHACLCSHDKLHPDKISIMKRISEYAADIFYSRYGGGPRLTVKALCKECVVERCRILRLKNQLNEDYKTVNNLLKAAVKGSDGFWVGKSSLRSWRQLALEQLDEQDGDAEQSNGKMNGSTLNKDESKEERKEEEELNFNEDILCPHGELCISENERRLVSKEAWSKLQQYFPKAPEFPSYKECCSQCKILEREGEENEALHKMIANEQKTSLPNLFQDKNRPCLSNWPEDTDVLYIVSQFFVEEWRKFVRKPTRCSPVSSVGNSALLCPHGGLMFTFASMTKEDSKLIALIWPSEWQMIQKLFVVDHVIKITRIEVGDVNPSETQYISEPKLCPECREGLLCQQQRDLREYTQATIYVHKVVDNKKVMKDSAPELNVSSSETEEDKEEAKPDGEKDPDFNQSNGGTKRQKISHQNYIAYQKQVIRRSMRHRKVRGEKALLVSANQTLKELKIQIMHAFSVAPFDQNLSIDGKILSDDCATLGTLGVIPESVILLKADEPIADYAAMDDVMQVCMPEEGFKGTGLLGH
Turning to B2, the binding result in experiment [2] was “no binding (tested: 10 µM probe)”.

B3: USP2^258–605 (catalytic domain) (enzyme, UniProt O75604 258-605)
chain: MNSKSAQGLAGLRNLGNTCFMNSILQCLSNTRELRDYCLQRLYMRDLHHGSNAHTALVEEFAKLIQTIWTSSPNDVVSPSEFKTQIQRYAPRFVGYNQQDAQEFLRFLLDGLHNEVNRVTLRPKSNPENLDHLPDDEKGRQMWRKYLEREDSRIGDLFVGQLKSSLTCTDCGYCSTVFDPFWDLSLPIAKRGYPEVTLMDCMRLFTKEDVLDGDEKPTCCRCRGRKRCIKKFSIQRFPKILVLHLKRFSESRIRTSKLTTFVNFPLRDLDLREFASENTNHAVYNLYAVSNHSGTTMGGHYTAYCRSPGTGEWHTFNDSSVTPMSSSQVRTSDAYLLFYELASPPSRM
For the molecule B3, the binding entry (in experiment [1]; with Fubi-PA L72R (human)) was “no binding (tested: 10 µM probe)” in each case.

B4: Flag–USP42, full length (enzyme, UniProt Q9H9J4 1-1324)
chain: MTIVDKASESSDPSAYQNQPGSSEAVSPGDMDAGSASWGAVSSLNDVSNHTLSLGPVPGAVVYSSSSVPDKSKPSPQKDQALGDGIAPPQKVLFPSEKICLKWQQTHRVGAGLQNLGNTCFANAALQCLTYTPPLANYMLSHEHSKTCHAEGFCMMCTMQAHITQALSNPGDVIKPMFVINEMRRIARHFRFGNQEDAHEFLQYTVDAMQKACLNGSNKLDRHTQATTLVCQIFGGYLRSRVKCLNCKGVSDTFDPYLDITLEIKAAQSVNKALEQFVKPEQLDGENSYKCSKCKKMVPASKRFTIHRSSNVLTLSLKRFANFTGGKIAKDVKYPEYLDIRPYMSQPNGEPIVYVLYAVLVHTGFNCHAGHYFCYIKASNGLWYQMNDSIVSTSDIRSVLSQQAYVLFYIRSHDVKNGGELTHPTHSPGQSSPRPVISQRVVTNKQAAPGFIGPQLPSHMIKNPPHLNGTGPLKDTPSSSMSSPNGNSSVNRASPVNASASVQNWSVNRSSVIPEHPKKQKITISIHNKLPVRQCQSQPNLHSNSLENPTKPVPSSTITNSAVQSTSNASTMSVSSKVTKPIPRSESCSQPVMNGKSKLNSSVLVPYGAESSEDSDEESKGLGKENGIGTIVSSHSPGQDAEDEEATPHELQEPMTLNGANSADSDSDPKENGLAPDGASCQGQPALHSENPFAKANGLPGKLMPAPLLSLPEDKILETFRLSNKLKGSTDEMSAPGAERGPPEDRDAEPQPGSPAAESLEEPDAAAGLSSTKKAPPPRDPGTPATKEGAWEAMAVAPEEPPPSAGEDIVGDTAPPDLCDPGSLTGDASPLSQDAKGMIAEGPRDSALAEAPEGLSPAPPARSEEPCEQPLLVHPSGDHARDAQDPSQSLGAPEAAERPPAPVLDMAPAGHPEGDAEPSPGERVEDAAAPKAPGPSPAKEKIGSLRKVDRGHYRSRRERSSSGEPARESRSKTEGHRHRRRRTCPRERDRQDRHAPEHHPGHGDRLSPGERRSLGRCSHHHSRHRSGVELDWVRHHYTEGERGWGREKFYPDRPRWDRCRYYHDRYALYAARDWKPFHGGREHERAGLHERPHKDHNRGRRGCEPARERERHRPSSPRAGAPHALAPHPDRFSHDRTALVAGDNCNLSDRFHEHENGKSRKRRHDSVENSDSHVEKKARRSEQKDPLEEPKAKKHKKSKKKKKSKDKHRDRDSRHQQDSDLSAACSDADLHRHKKKKKKKKRHSRKSEDFVKDSELHLPRVTSLETVAQFRRAQGGFPLSGGPPLEGVGPFREKTKHLRMESRDDRCRLFEYGQGKRRYLELGR
For B4, the binding result in experiment [2] is on record as “no binding (tested: 10 µM probe)”.

B5: endogenous USP36 (enzyme, UniProt Q9P275 1-1123)
chain: MPIVDKLKEALKPGRKDSADDGELGKLLASSAKKVLLQKIEFEPASKSFSYQLEALKSKYVLLNPKTEGASRHKSGDDPPARRQGSEHTYESCGDGVPAPQKVLFPTERLSLRWERVFRVGAGLHNLGNTCFLNATIQCLTYTPPLANYLLSKEHARSCHQGSFCMLCVMQNHIVQAFANSGNAIKPVSFIRDLKKIARHFRFGNQEDAHEFLRYTIDAMQKACLNGCAKLDRQTQATTLVHQIFGGYLRSRVKCSVCKSVSDTYDPYLDVALEIRQAANIVRALELFVKADVLSGENAYMCAKCKKKVPASKRFTIHRTSNVLTLSLKRFANFSGGKITKDVGYPEFLNIRPYMSQNNGDPVMYGLYAVLVHSGYSCHAGHYYCYVKASNGQWYQMNDSLVHSSNVKVVLNQQAYVLFYLRIPGSKKSPEGLISRTGSSSLPGRPSVIPDHSKKNIGNGIISSPLTGKRQDSGTMKKPHTTEEIGVPISRNGSTLGLKSQNGCIPPKLPSGSPSPKLSQTPTHMPTILDDPGKKVKKPAPPQHFSPRTAQGLPGTSNSNSSRSGSQRQGSWDSRDVVLSTSPKLLATATANGHGLKGNDESAGLDRRGSSSSSPEHSASSDSTKAPQTPRSGAAHLCDSQETNCSTAGHSKTPPSGADSKTVKLKSPVLSNTTTEPASTMSPPPAKKLALSAKKASTLWRATGNDLRPPPPSPSSDLTHPMKTSHPVVASTWPVHRARAVSPAPQSSSRLQPPFSPHPTLLSSTPKPPGTSEPRSCSSISTALPQVNEDLVSLPHQLPEASEPPQSPSEKRKKTFVGEPQRLGSETRLPQHIREATAAPHGKRKRKKKKRPEDTAASALQEGQTQRQPGSPMYRREGQAQLPAVRRQEDGTQPQVNGQQVGCVTDGHHASSRKRRRKGAEGLGEEGGLHQDPLRHSCSPMGDGDPEAMEESPRKKKKKKRKQETQRAVEEDGHLKCPRSAKPQDAVVPESSSCAPSANGWCPGDRMGLSQAPPVSWNGERESDVVQELLKYSSDKAYGRKVLTWDGKMSAVSQDAIEDSRQARTETVVDDWDEEFDRGKEKKIKKFKREKRRNFNAFQKLQTRRNFWSVTHPAKAASLSYRR
In the case of B5, the binding entry in experiment [2] is listed as “binds”.

B6: Flag–USP36, full length (enzyme, UniProt Q9P275 1-1123)
chain: MPIVDKLKEALKPGRKDSADDGELGKLLASSAKKVLLQKIEFEPASKSFSYQLEALKSKYVLLNPKTEGASRHKSGDDPPARRQGSEHTYESCGDGVPAPQKVLFPTERLSLRWERVFRVGAGLHNLGNTCFLNATIQCLTYTPPLANYLLSKEHARSCHQGSFCMLCVMQNHIVQAFANSGNAIKPVSFIRDLKKIARHFRFGNQEDAHEFLRYTIDAMQKACLNGCAKLDRQTQATTLVHQIFGGYLRSRVKCSVCKSVSDTYDPYLDVALEIRQAANIVRALELFVKADVLSGENAYMCAKCKKKVPASKRFTIHRTSNVLTLSLKRFANFSGGKITKDVGYPEFLNIRPYMSQNNGDPVMYGLYAVLVHSGYSCHAGHYYCYVKASNGQWYQMNDSLVHSSNVKVVLNQQAYVLFYLRIPGSKKSPEGLISRTGSSSLPGRPSVIPDHSKKNIGNGIISSPLTGKRQDSGTMKKPHTTEEIGVPISRNGSTLGLKSQNGCIPPKLPSGSPSPKLSQTPTHMPTILDDPGKKVKKPAPPQHFSPRTAQGLPGTSNSNSSRSGSQRQGSWDSRDVVLSTSPKLLATATANGHGLKGNDESAGLDRRGSSSSSPEHSASSDSTKAPQTPRSGAAHLCDSQETNCSTAGHSKTPPSGADSKTVKLKSPVLSNTTTEPASTMSPPPAKKLALSAKKASTLWRATGNDLRPPPPSPSSDLTHPMKTSHPVVASTWPVHRARAVSPAPQSSSRLQPPFSPHPTLLSSTPKPPGTSEPRSCSSISTALPQVNEDLVSLPHQLPEASEPPQSPSEKRKKTFVGEPQRLGSETRLPQHIREATAAPHGKRKRKKKKRPEDTAASALQEGQTQRQPGSPMYRREGQAQLPAVRRQEDGTQPQVNGQQVGCVTDGHHASSRKRRRKGAEGLGEEGGLHQDPLRHSCSPMGDGDPEAMEESPRKKKKKKRKQETQRAVEEDGHLKCPRSAKPQDAVVPESSSCAPSANGWCPGDRMGLSQAPPVSWNGERESDVVQELLKYSSDKAYGRKVLTWDGKMSAVSQDAIEDSRQARTETVVDDWDEEFDRGKEKKIKKFKREKRRNFNAFQKLQTRRNFWSVTHPAKAASLSYRR
With B6, the binding entry in experiment [3] and in experiment [2] was “binds” in each case.
